Data reported in PubChem BioAssay AID1347073 (National Center for Advancing Translational Sciences (NCATS), 2019).
Among all 45,000 compounds or so, about 200 (0.44%) were called active. Inconclusive results (about 7%) are left out. Calls come from the whole dose curve; as a rule, active = well fitted activation curve with a large enough effect; inconclusive = small, poorly fitted or top-dose-only effect; inactive = no such curve, though single readings can be large or run the other way. The list shows a part of the results.

Test: qHTS of TDP-43 Inhibitors: NCGC Sytravon Library Screen; note: 0% is about no effect; nearly all actives have a fitted effect of over 55% in size
Conditions: yeast TDP-43 toxicity rescue, BacTiter-Glo growth, 24 h; series mostly up to 46.1 µM; growth rescue (activation): at the top concentration
Outline: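 TDP-43-expressing yeast, pregrown in raffinose, seeded at OD600 0.02 in galactose medium with compound for 24 hr at 30 deg C. Growth read by BacTiter-Glo luminescence, so rescue of toxicity appears as activation.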

SMILES	growth rescue (activation)
O=C(c1ccco1)N1CCN(C(=O)c2ccc(COc3ccc(F)cc3)o2)CC1	inactive: 10.4%
CC(C)C(NS(=O)(=O)c1cccc(C(F)(F)F)c1)C(=O)N1CCc2ccccc2C1 (stereo not drawn)	inactive: 28.1%
Cc1noc(C)c1S(=O)(=O)NC(=O)C1(C)CCN1C(=O)C1(c2ccc(Cl)cc2)CC1 (stereo not drawn)	inactive: -4.28%
CC(=O)c1ccc(NC(=S)NCc2cccnc2)cc1	inactive: 2.8%
CCc1cc2c(CN(C)Cc3ccccc3F)cc(=O)oc2cc1O	inactive: 9.08%
COc1c(Cl)cc(Cl)cc1CNc1ccc(S(N)(=O)=O)cc1	inactive: 3.82%
COc1cccc(NC(=O)Nc2nnc(N3C(C)CCCC3C)s2)c1 (stereo not drawn)	inactive: 3.32%
CC(=O)Nc1ccc(NC(=O)c2c(C)nn(Cc3ccccc3)c2Cl)cc1	inactive: 11.8%
Cn1c(N)c(C(=O)COC(=O)C2CC(O)CN2S(=O)(=O)c2ccc(Cl)cc2)c(=O)n(C)c1=O (stereo not drawn)	inactive: -5.01%
Cc1cc2c(ccc3c2no[n+]3[O-])nn1	inactive: 3.27%
COc1ccc(CC(N)c2csc(NC(=O)Nc3ccccc3C(C)C)n2)cc1 (stereo not drawn)	inactive: -1.23%
C=CCn1cc(C(=O)c2cc(Br)ccc2O)cc(C#N)c1=O	inactive: 25%
COc1cc(OC)cc(C(=O)N[C@H](C(=O)NCc2ccc(F)cc2)C(C)C)c1	inactive: -6.52%
CC1(C(=O)NS(=O)(=O)c2cccc(Cl)c2)CCN1C(=O)C1CCCCC1 (stereo not drawn)	inactive: 14.1%
CCc1nc(C)cn1S(=O)(=O)c1ccc2c(c1)OCCO2	inactive: -3.34%
CC(C(=O)O)N(C(=O)c1ccccc1)c1ccc(F)cc1 (stereo not drawn)	inactive: -1.54%
O=C(Nc1ccc(S(=O)(=O)NCC2CCCO2)cc1)C1CC(=O)N(c2ccccc2)C1 (stereo not drawn)	inactive: 15.8%
CC(=O)N1CCCN(Cc2cn(-c3ccc(C)cc3)nc2-c2ccc(F)cc2)CC1	inactive: 8.37%
Cc1ccsc1C(=O)OCC(=O)Nc1cccc(S(=O)(=O)NC2=NCCCCC2)c1	inactive: 11.2%
CN1CCC(N(C)S(=O)(=O)c2ccc(F)cc2F)CC1	inactive: -2.61%
O=C(CCC(=O)Nc1ccc(Br)cc1)N/N=C/c1ccccc1O	inactive: 7.58%
Cc1ccccc1COc1ccc2oc(C)c(C(=O)O)c2c1	inactive: 5.5%
Cc1cc(C)cc(NC(=O)C2C3C=CC(O3)C2C(=O)O)c1 (stereo not drawn)	inactive: 6.35%
CCc1nc2c(OCC(=O)N(C)C)cccn2c1N(C=O)Cc1ccc(OC)cc1	inactive: 6.76%
CCC(CC)c1nnc(NC(=O)CS(=O)(=O)c2ccccc2)s1	inactive: -3.88%
O=C(Nc1cccc(C(F)(F)F)c1)Nc1ccc2[nH]c(=O)[nH]c2c1	inactive: 7.42%
O=C(O)CS(=O)CC(=O)Nc1cccc(C(F)(F)F)c1 (stereo not drawn)	inactive: -9.45%

SMILES	growth rescue (activation)
CCOc1ccc(OCC)c(NC(=O)c2ccc(CNc3c(N4CCCC4)c(=O)c3=O)cc2)c1	inactive: -6.61%
Cc1ccccc1-c1cc2nc(NCc3ccc4occc4c3)n(C)c(=O)c2s1	inactive: 25.9%
CCOC(=O)N1CCN(C(=O)COC(=O)c2cc(C)ccc2C)CC1	inactive: 12.9%
Cc1ccc(NC(=O)COc2ccc(-c3nnco3)cc2)cc1S(=O)(=O)N1CCOCC1	inactive: 16.5%
Cc1ccc(CN2CCN(C(=O)c3cccc4ccccc34)CC2)cc1	inactive: -4.12%
Cc1cc(OCC(=O)NC(C)(C)C)ccc1Cl	inactive: 35.6%
COc1cc([C@@H]2[C@H]3CN(C)CC=C3C(C#N)=C(N)C2(C#N)C#N)cc2c1OCO2	inactive: -24.1%
O=C(NCc1ccccc1)c1cc(C2CCCN(S(=O)(=O)c3cccs3)C2)on1 (stereo not drawn)	inactive: 4.34%
CCN1CCN(Cc2cc(=O)oc3ccc(C)cc23)CC1	inactive: -7.21%
CCC(c1nnc(SCC(=O)NC23CC4CC(CC(C4)C2)C3)o1)N(C)C (stereo not drawn)	inactive: 1.78%
COc1ccc(C2CC(c3ccccc3)=NN2C(=O)CSc2nnnn2-c2cccc(C)c2)cc1 (stereo not drawn)	inactive: 6.16%
Cc1c(N2C(=O)CSC2c2ccc([N+](=O)[O-])cc2)c(=O)n(-c2ccccc2)n1C (stereo not drawn)	inactive: -3.83%
Cc1nn(CC(=O)NC2CCS(=O)(=O)C2)c(C)c1[N+](=O)[O-] (stereo not drawn)	inactive: -3.03%
Cc1cc(N2C(=O)CC(N3CCN(C(c4ccccc4)c4ccccc4)CC3)C2=O)no1 (stereo not drawn)	inactive: 17.9%
COC(=O)C(=Nc1ccccc1)/C(C(=O)C(=O)N(C)c1ccccc1)=C(\O)c1ccccc1	inactive: -2.23%
O=C(NCc1ccccc1Cl)[C@@H]1CCCN1S(=O)(=O)c1ccc(Cl)cc1	inactive: 21.5%
O=C(COC(=O)c1ccc2c(c1)OCO2)Nc1nc(-c2ccccc2)cs1	inactive: -9.12%
CCOC(=O)N1CCN(CC(O)c2c[nH]c3ccc(OC)cc23)CC1 (stereo not drawn)	inactive: -3.53%
Cc1ccc(OCC(O)CNCc2ccc(F)cc2)cc1 (stereo not drawn)	inactive: 4.32%
CN1CCN(S(=O)(=O)c2ccc(N3CCN(C(=O)c4ccccc4)CC3)nc2)CC1	inactive: 17.9%
Cc1cccc(NC(=O)CSc2nnnn2C2CCCC2)c1	inactive: 1.12%
O=C(COC(=O)C1CC1)NCCc1ccccc1	inactive: 18.7%
CN(C)c1ccc(P(=O)(Nc2ccc([N+](=O)[O-])cc2)N2CCOCC2)c(NC(=O)c2cccs2)c1 (stereo not drawn)	inactive: 5.3%
COc1ccccc1NC(=O)c1ccc2nsnc2c1	inactive: 30.7%
C=CCN(Cc1nc(-c2ccccc2)no1)C(=O)c1ccc2c(c1)OCO2	inactive: 34.7%
O=C(Cc1ccccc1)NCC(=O)N1CCc2ccccc2C1	inactive: 1.24%
